Measurements taken from PubChem BioAssay AID686979 (National Center for Advancing Translational Sciences (NCATS), 2013).
Screen size: about 420,000 compounds; about 50,000 (12%) were called active. The shares of active, inactive and inconclusive entries below differ from those in the screen. Calls follow the shape of the dose curve; as a rule, active = well fitted inhibition curve with a large enough effect; inconclusive = small, poorly fitted or top-dose-only effect; inactive = flat fitted curve, though single readings scatter. Potencies of inconclusive entries are left out as doubtful fits.

Assay: qHTS for Inhibitors of human tyrosyl-DNA phosphodiesterase 1 (TDP1): qHTS in cells in presence of CPT; also: nearly all actives have a fitted effect of over 55% in size
Details: chicken DT40 Tdp1-/-;hTDP1 cells + 20 nM CPT, ATP luminescence, 48 h; activity change, negative = growth inhibition: at 46.2 µM (top of the series) unless noted
How it was run: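 Cell growth measured by CellTiter-Glo luminescence after a minimum 48 h, 37 C compound exposure with 20 nM CPT in Tdp1-knockout DT40 cells stably expressing hTDP1, seeded 400/well; qHTS titration format.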
% is scaled to controls: 0 for no effect and ±100 for the full control effect; potency is read from the fitted curve at half-maximal effect; tags tell the direction and shape of the fitted curve.

Row | SMILES | Potency | activity change, negative = growth inhibition
1 | Cc1ccccc1Cn1c(CN2CCc3ccccc3C2)nc2c1c(=O)n(C)c(=O)n2C | inconclusive [inhibitor, single point] | 
2 | Cc1cccc(CNC(=O)c2ccc3c(c2)N(C)CCS3)c1 | inconclusive [inhibitor, single point] | 
3 | COc1ccc(CCN2CC(C(=O)NCc3nc(C)c(C)s3)CCC2=O)cc1 (centres undefined) |  | inactive: -29.8%
4 | COc1ccc(/C=C/C(=O)NCc2c(C)nn(C)c2C)cc1COc1ccc(Br)cc1 | inconclusive [inhibitor, single point] | 
5 | O=C(NCCc1ccc(C(F)(F)F)cc1)C1CCC(=O)N(CCc2cccc(F)c2)C1 (centres undefined) | inconclusive [inhibitor, single point] | 
6 | COc1ccc(Cl)cc1C(=O)Nc1ccc2nc3n(c(=O)c2c1)CCCC3 | active: 14.6 µM | 
7 | O=C(c1ccc(Cl)cc1)n1c(NCc2ccccc2)n[nH]c1=S |  | inactive: -10%
8 | CC1CCC(N2CC(=O)N(Cc3ccc4c(c3)OCO4)C(c3ccc(F)cc3)C2=O)CC1 (centres undefined) | inconclusive [inhibitor, partial curve] | 
9 | CCCCOc1cccc(C(=O)NC(=S)Nc2cccc(C(F)(F)F)c2)c1 | inconclusive [inhibitor, single point] | 
10 | O=C(C[n+]1cc(Br)cc2ccccc21)c1ccc(F)cc1 | active: 14.1 µM | 
11 | Cc1ccc(NS(=O)(=O)c2ccc(N/N=C/c3ccccc3OCC(=O)O)c([N+](=O)[O-])c2)c(C)c1 |  | inactive: 1.01%
12 | O=C(O)c1oc2ccccc2c1-n1cccc1 | inconclusive [inhibitor, single point] | 
13 | CCOc1ccc(C2C(=O)N(C3CCCCC3)CC(=O)N2Cc2ccc(F)cc2)cc1OC (centres undefined) | inconclusive [inhibitor, single point] | 
14 | CCn1c(SCC(=O)N2c3ccccc3Sc3ccccc32)nc2c1c(=O)n(C)c(=O)n2C | inconclusive [inhibitor, single point] | 
15 | CNC(=O)NC(=O)CN1C(=O)NC2(CCOc3ccccc32)C1=O (centres undefined) |  | inactive: 22%
16 | CCCc1nc(SCc2ccccn2)c2c(=O)n(C)c(=O)n(C)c2n1 | inconclusive [inhibitor, single point] | 
17 | Cc1ccc(-c2nc3c4ccccc4ccn3c2CN2CCCCC2)cc1 | active: 23.1 µM | 
18 | COC(=O)c1ccc2nc(-c3ccco3)c(Cc3ccccc3C(F)(F)F)n2c1 | inconclusive [inhibitor, single point] | 
19 | COc1cccc(-c2ccc(-c3noc(-c4ccccc4F)n3)c(OC)n2)c1 |  | inconclusive: -31.3% [inhibitor]
20 | O=C(Nc1cccc([N+](=O)[O-])c1)c1ccc2c(c1)OCCO2 | inconclusive [inhibitor, single point] | 
21 | Cc1ccccc1NC(=O)Nc1nc(C2CCC(=O)N2)cs1 (centres undefined) | inconclusive [inhibitor, single point] | 
22 | O=C(c1ccc(CS(=O)c2cccc(Cl)c2)o1)N1CCN(c2ccccn2)CC1 (centres undefined) | inconclusive [inhibitor, single point] | 

Row | SMILES | Potency | activity change, negative = growth inhibition
23 | O=C(COc1nsnc1N1CCOCC1)Nc1ccc([N+](=O)[O-])cc1 | active: 29.1 µM | 
24 | COc1ccc(CN2CCCC(N3CCN(c4cccc(Cl)c4)CC3)C2)cc1OC (centres undefined) | inconclusive [inhibitor, single point] | 
25 | O=S(=O)(CCSc1nc2ccccc2o1)c1nc2ccccc2s1 | active: 4.11 µM | 
26 | CCn1c(SCC(=O)Nc2cc(OC)ccc2OC)nnc1C1CCCCC1 | active: 29.1 µM | 
27 | Cc1ccccc1CNC(=O)Cn1nc(C)c2nn(-c3ccc(Cl)cc3)c(C)c2c1=O | inconclusive [inhibitor, single point] | 
28 | COc1cc(C(C)=O)ccc1Oc1ncnc2c1cnn2-c1ccc(F)cc1 | inconclusive [inhibitor, single point] | 
29 | CC(C)=NOc1cc(NC(=O)CCl)cc([N+](=O)[O-])c1 | active: 3.66 µM | 
30 | COc1cc(CN(C2CCCCC2)S(=O)(=O)c2ccc(S(=O)(=O)N(C)C3CCCCC3)cc2)cc(OC)c1OC | inconclusive [inhibitor, full curve] | 
31 | N/C(=N\OC(=O)CCn1cccc(C(F)(F)F)c1=O)c1ccc(Cl)cc1 | inconclusive [inhibitor, single point] | 
32 | COc1ccc(-c2csc(-n3cccn3)n2)cc1 |  | inactive: 13%
33 | CC1(C)C(C=C(Cl)Cl)C1C(=O)N1CCN(c2ccccc2)CC1 (centres undefined) | inconclusive [inhibitor, partial curve] | 
34 | CCOc1ccc(OCCC(=O)OCC(=O)N2CCN(S(=O)(=O)c3ccc(Cl)cc3)CC2)cc1 | inconclusive [inhibitor, single point] | 
35 | COc1ccc(S(=O)(=O)N2CCN(Cc3ccccc3)CC2)cc1 |  | inactive: -26.5%
36 | CCCCOC(=O)c1ccc(NC(=O)C(=O)NCc2ccncc2)cc1 | active: 23.1 µM | 
37 | CCCCC(=O)Nc1nc(C)c(-c2csc(Nc3cc(Cl)ccc3OC)n2)s1 | inconclusive [inhibitor, partial curve] | 
38 | CC1CCCN(Cc2nc3c(c(=O)n(C)c(=O)n3C)n2CCCc2ccccc2)C1 (centres undefined) | active: 20.6 µM | 
39 | CCCCNC(=O)c1ccc2nc(-c3cccs3)c(-c3cccs3)nc2c1 | inconclusive [inhibitor, partial curve] | 
40 | Cn1ccnc1C(=O)Cc1ccc([N+](=O)[O-])cc1 |  | inactive: 8.58%
41 | O=C(N/N=C/c1cccnc1)c1cc(-c2ccccc2Cl)nc2ccccc12 | inconclusive [inhibitor, partial curve] | 
42 | CO/C([O-])=N/c1c[n+](-c2ccc(C)cc2)no1 | inconclusive [inhibitor, partial curve, poor fit] | 
43 | CSC(=NC#N)N1CCN(c2c(C)cccc2C)CC1 | inconclusive [inhibitor, single point] | 
44 | Cc1ccc(C)c(N2CCN(S(=O)(=O)c3ccc4[nH]c5c(c4c3)CCCC5)CC2)c1 | inconclusive [inhibitor, single point] | 
